Assay results: PubChem BioAssay AID504333 (National Center for Advancing Translational Sciences (NCATS), 2011)
Screen size: about 360,000 compounds; about 16,000 (4.4%) were called active. The inconclusive results got no clear call from the source; some entries with a clear call stand among them for comparison. Calls come from the whole dose curve; as a rule, active = well fitted inhibition curve with a large enough effect; inconclusive = small, poorly fitted or top-dose-only effect; inactive = no such curve, though single readings can be large or run the other way. Where the call is inconclusive, the potency comes from a doubtful curve fit.

target: Bromodomain adjacent to zinc finger domain protein 2B (Homo sapiens) (UniProt Q9UIF8); assay: qHTS Assay for Inhibitors of BAZ2B; details: AlphaScreen BAZ2B-H3K14Ac peptide displacement; activity change, negative = inhibition: at 114 µM (top of the series); note: nearly all actives have a fitted effect of over 60% in size
Chain of UniProt Q9UIF8 (Q9UIF8 whole entry, looked up, the tested form may be a part): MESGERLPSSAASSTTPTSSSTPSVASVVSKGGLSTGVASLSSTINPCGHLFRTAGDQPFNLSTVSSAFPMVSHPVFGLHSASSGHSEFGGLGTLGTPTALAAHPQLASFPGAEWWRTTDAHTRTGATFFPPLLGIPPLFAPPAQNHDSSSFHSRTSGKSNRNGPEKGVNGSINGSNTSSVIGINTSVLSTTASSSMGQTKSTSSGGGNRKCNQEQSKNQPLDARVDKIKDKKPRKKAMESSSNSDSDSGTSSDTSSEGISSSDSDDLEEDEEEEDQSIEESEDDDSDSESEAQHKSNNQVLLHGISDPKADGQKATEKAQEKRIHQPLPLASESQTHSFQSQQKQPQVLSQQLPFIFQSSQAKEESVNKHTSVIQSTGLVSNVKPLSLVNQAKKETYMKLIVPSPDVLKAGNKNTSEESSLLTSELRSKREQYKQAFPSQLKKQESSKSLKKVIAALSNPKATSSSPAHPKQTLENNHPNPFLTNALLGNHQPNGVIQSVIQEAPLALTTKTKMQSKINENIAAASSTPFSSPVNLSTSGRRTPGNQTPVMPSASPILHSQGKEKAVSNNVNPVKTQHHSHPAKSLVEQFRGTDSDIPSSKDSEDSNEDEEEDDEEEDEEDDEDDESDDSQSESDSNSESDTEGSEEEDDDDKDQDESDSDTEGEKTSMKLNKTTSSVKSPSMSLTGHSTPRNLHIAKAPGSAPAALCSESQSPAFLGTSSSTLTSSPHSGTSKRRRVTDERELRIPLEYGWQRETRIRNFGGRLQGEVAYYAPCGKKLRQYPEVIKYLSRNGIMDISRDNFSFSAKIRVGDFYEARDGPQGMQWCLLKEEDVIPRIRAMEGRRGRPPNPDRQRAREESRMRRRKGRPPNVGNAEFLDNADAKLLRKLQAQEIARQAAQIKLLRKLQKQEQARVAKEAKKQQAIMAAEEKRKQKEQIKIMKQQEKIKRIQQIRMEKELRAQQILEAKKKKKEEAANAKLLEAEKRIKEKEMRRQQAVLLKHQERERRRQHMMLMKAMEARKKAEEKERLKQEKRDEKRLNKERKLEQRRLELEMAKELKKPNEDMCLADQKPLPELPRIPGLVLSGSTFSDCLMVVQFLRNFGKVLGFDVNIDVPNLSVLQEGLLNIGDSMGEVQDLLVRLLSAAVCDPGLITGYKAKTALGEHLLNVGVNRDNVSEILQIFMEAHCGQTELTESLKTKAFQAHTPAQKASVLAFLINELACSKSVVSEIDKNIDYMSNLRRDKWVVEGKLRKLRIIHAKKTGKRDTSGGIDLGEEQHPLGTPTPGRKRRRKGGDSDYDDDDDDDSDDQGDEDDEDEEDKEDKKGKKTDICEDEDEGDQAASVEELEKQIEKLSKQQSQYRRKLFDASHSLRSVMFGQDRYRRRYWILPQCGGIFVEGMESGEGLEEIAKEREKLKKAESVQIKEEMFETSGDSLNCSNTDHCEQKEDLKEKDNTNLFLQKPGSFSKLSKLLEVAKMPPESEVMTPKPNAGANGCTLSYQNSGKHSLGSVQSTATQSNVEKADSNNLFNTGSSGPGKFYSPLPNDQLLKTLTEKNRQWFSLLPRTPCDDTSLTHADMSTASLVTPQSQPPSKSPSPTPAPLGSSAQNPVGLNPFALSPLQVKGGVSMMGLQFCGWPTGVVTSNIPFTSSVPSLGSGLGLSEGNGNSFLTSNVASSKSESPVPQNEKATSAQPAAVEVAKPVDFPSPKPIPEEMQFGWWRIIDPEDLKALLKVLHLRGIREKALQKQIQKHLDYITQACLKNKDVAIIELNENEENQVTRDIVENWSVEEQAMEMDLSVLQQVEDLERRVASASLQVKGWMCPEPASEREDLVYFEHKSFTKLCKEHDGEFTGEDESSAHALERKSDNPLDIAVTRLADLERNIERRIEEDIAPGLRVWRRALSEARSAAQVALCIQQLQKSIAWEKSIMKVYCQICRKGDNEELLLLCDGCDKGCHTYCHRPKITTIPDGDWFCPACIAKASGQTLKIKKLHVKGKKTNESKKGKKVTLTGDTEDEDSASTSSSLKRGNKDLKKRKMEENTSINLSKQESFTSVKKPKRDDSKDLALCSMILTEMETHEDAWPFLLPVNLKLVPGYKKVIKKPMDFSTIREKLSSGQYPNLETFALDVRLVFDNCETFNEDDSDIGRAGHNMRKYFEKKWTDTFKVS
In short: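 Compounds, titrated to a top concentration of 110 uM, were incubated 30 min at room temperature with preformed BAZ2B/acetyl-K14 H3 peptide complex (50 nM each). Proximity signal was measured by AlphaScreen after 20 min with beads.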
% is set by controls: 0 for no effect and ±100 for the full control effect; potency is the fitted concentration of half-maximal effect; tags give direction and shape of the fitted curve.

Row | SMILES | Potency | activity change, negative = inhibition
1 | O=C(CSc1nc2ccc(NC(=O)c3ccccc3C(=O)O)cc2s1)Nc1c(Cl)cccc1Cl | inconclusive: 79.4 µM [inhibitor, single point] | 
2 | COc1ccc(-c2nnc(SCC(=O)N/N=C/c3ccccc3C(=O)O)n2-c2ccc(Cl)cc2)cc1 |  | inactive: -12.6%
3 | COC(=O)[C@@]12CCCN1[C@H](c1ccc(-c3cccc(Cl)c3)cc1)[C@H]1C(=O)N(C)C(=O)[C@H]12 | inconclusive: 50.1 µM [inhibitor, partial curve] | 
4 | CCCCCCC(=O)Nc1nc(C)c(-c2csc(Nc3cc(OC)ccc3OC)n2)s1 | inconclusive: 44.7 µM [inhibitor, partial curve] | 
5 | CC(C)c1ccccc1NC(=O)COC(=O)c1c2c(nc3ccccc13)CCN(Cc1ccccc1)C2 |  | inactive: -10.2%
6 | Cc1ccc(C(=O)CSc2nnc3ccc4ccccc4n23)cc1 |  | inactive: -12.1%
7 | Nc1ccccc1C(=O)NNc1c2ccccc2nc2ccccc12 | active: 28.2 µM | 
8 | CCOC(=O)c1c(S(=O)(=O)NCCc2ccccc2)c(C)n(C)c1C | inconclusive: 79.4 µM [inhibitor, single point] | 
9 | CCOC(=O)N1CCN(c2c(NCCCN(CC)CC)c(=O)c2=O)CC1 |  | inactive: -34.8%
10 | COc1ccc(N2CCN(C(=O)c3cc(-c4ccc(F)cc4)[nH]c3C)CC2)cc1 | active: 44.7 µM | 
11 | Cc1ccccc1/C=N/NC(=O)Cn1cnc([N+](=O)[O-])n1 | inconclusive: 6.31 µM [inhibitor, single point] | 
12 | Cc1ccc(/C=C/C(=O)Nc2ccc([N+](=O)[O-])cc2)o1 | active: 50.1 µM | 
13 | Cc1ccc(S(=O)(=O)N2CCC(C(=O)N/N=C/c3ccncc3)CC2)cc1 |  | inactive: -1.78%
14 | CC(C)c1ccc(C2c3[nH]c4ccccc4c3C[C@H]3C(=O)N(c4ccccc4C(=O)N4CCC[C@H]4C(=O)O)C(=O)N23)cc1 (some centres not stated) | inconclusive: 70.8 µM [inhibitor, single point] | 
15 | Nc1cc(N)c(OCC(F)(F)F)cc1OCC(F)(F)F | inconclusive: 70.8 µM [inhibitor, single point] | 
16 | COc1cccc(C(=O)NC(=S)N2c3ccccc3CC2C)c1OC (configuration not stated) | inconclusive: 50.1 µM [inhibitor, partial curve] | 
17 | Cc1[nH]c2ccccc2c1/C=N/NC(=O)c1cc(C(C)(C)C)[nH]n1 | active: 70.8 µM | 
18 | O=C(Cc1ccc(F)cc1)NCCc1csc(-c2ccc(C(F)(F)F)cc2)n1 |  | inactive: -5.34%
19 | O=C(/C=C/c1ccc(Br)cc1)NCCCn1ccnc1 |  | inactive: -6.75%
20 | COc1ccc(/C=N/Nc2nnc(C)n2N)cc1OC(C)=O |  | inactive: -24.7%
21 | Cc1ccc(-n2c(C)cc(C3N=C(N)Nc4nc5ccccc5n43)c2C)c(C)c1 (configuration not stated) | active: 39.8 µM | 
22 | O=C(O)CCc1ccc(-c2ccc(Cl)cc2)n1-c1cccc(C(F)(F)F)c1 | active: 35.5 µM | 
23 | O=C(NCc1ccccn1)C1CCCN(S(=O)(=O)c2ccccc2)C1 (configuration not stated) |  | inactive: 7.16%
24 | S=C(NCC1CCCO1)Nc1ccc(Nc2ccccc2)cc1 (configuration not stated) | inconclusive: 50.1 µM [inhibitor, partial curve] | 

Row | SMILES | Potency | activity change, negative = inhibition
25 | O=C(COC(=O)c1ccc(S(=O)(=O)NCc2ccco2)cc1)NCC1CCCCC1 | inconclusive: 50.1 µM [inhibitor, partial curve] | 
26 | COCCN1C(=O)C(=O)/C(=C(/O)c2ccc3c(c2)OCCO3)C1c1ccc(C(=O)OC)cc1 (configuration not stated) | inconclusive: 89.1 µM [inhibitor, single point] | 
27 | CCOc1cccc(CN2CCCC(N3CCN(c4cccc(Cl)c4)CC3)C2)c1O (configuration not stated) | inconclusive: 35.5 µM [inhibitor, partial curve] | 
28 | Cc1cc(C(=O)COC(=O)CNC(=O)c2ccc(F)cc2)c(C)n1Cc1ccco1 | active: 50.1 µM | 
29 | Cc1ccc(CCC(=O)Nc2ccc([N+](=O)[O-])cc2Cl)o1 | inconclusive: 39.8 µM [inhibitor, partial curve] | 
30 | O=C(CCN1C(=O)/C(=C\c2ccco2)SC1=S)Nc1ccc(C(=O)O)c(O)c1 | active: 35.5 µM | 
31 | CCOc1ccccc1NC(=O)CSc1nccn1Cc1ccc(F)cc1 | inconclusive: 39.8 µM [inhibitor, partial curve] | 
32 | C/C(CCN1CCCCc2nc(C)c(C)cc21)=N\OC[C@@H](O)[C@H]1O[C@@H]2OC(C)(C)O[C@@H]2[C@H]1O |  | inactive: -17.7%
33 | Cc1cccc(OCCCCn2c(C3CC(=O)N(c4ccc(C)cc4C)C3)nc3ccccc32)c1 (configuration not stated) | inconclusive: 22.4 µM [inhibitor, full curve] | 
34 | COC(=O)N/N=C/c1cc(N=Nc2ccccc2Cl)ccc1O | inconclusive: 44.7 µM [inhibitor, partial curve, poor fit] | 
35 | COc1ccc(-c2[nH]ncc2/C=C(/C#N)C(=O)NC2CCCCCC2)cc1 | inconclusive: 89.1 µM [inhibitor, single point] | 
36 | O=C1N(Cc2cccnc2)C[C@@H]2C[C@@H](c3cccc(OC4CCCC4)c3)N3CCC[C@@]123 | inconclusive: 79.4 µM [inhibitor, single point] | 
37 | Cc1cccc(-c2noc(-c3ccccc3C(=O)NCc3ccco3)n2)c1 | active: 50.1 µM | 
38 | Cc1ccc(S(=O)(=O)N2CCCc3cc(NC(=O)c4c(F)cccc4F)ccc32)cc1 | inconclusive: 79.4 µM [inhibitor, single point] | 
39 | C/C(=N\Nc1ccc(Cl)c(C(=O)O)c1)c1cc2ccccc2o1 | inconclusive: 70.8 µM [inhibitor, partial curve] | 
40 | C/C(=N\NC(=O)c1cccc(Br)c1)c1ccccn1 | active: 3.55 µM | 
41 | COc1ccc(CCN2C(=O)N[C@@H](C(C)C)C2=O)cc1 |  | inactive: 0.48%
42 | COc1ccc(CNC(=O)c2cnc(C)cn2)cc1 | active: 50.1 µM | 
43 | COc1cccc(C2C=C(c3cccs3)Nc3ncnn32)c1OC (configuration not stated) | inconclusive: 89.1 µM [inhibitor, single point] | 
44 | Cc1ccccc1NS(=O)(=O)c1ccc2oc(=O)ccc2c1 |  | inactive: 1.15%
45 | CCOc1ccc(C(=S)N2CCCC2)cc1OCC |  | inactive: 5.6%
46 | C=CCNC(=S)N/N=C(\C)c1ccc(-n2ccnc2)cc1 | inconclusive: 70.8 µM [inhibitor, partial curve] | 
47 | C=CCCC(=O)Nc1nc(C)c(-c2csc(Nc3cc(OC)ccc3OC)n2)s1 | active: 50.1 µM | 
48 | Cc1ccc2[nH]c3c(NCc4ccco4)ncnc3c2c1 | inconclusive: 44.7 µM [inhibitor, partial curve] | 

Row | SMILES | Potency | activity change, negative = inhibition
49 | CCS(=O)(=O)N1Cc2ccccc2CC1C(=O)NCCc1c[nH]c2ccccc12 (configuration not stated) | inconclusive: 70.8 µM [inhibitor, single point] | 
50 | C=CCNC(=O)c1ccccc1NC(=O)C1CC(=O)N(C(C)C)C1 (configuration not stated) |  | inactive: -35.2%
51 | Cc1ccccc1/C=C/C1=NCCN1 | inconclusive: 89.1 µM [inhibitor, single point] | 
52 | COc1cccc(Nc2c(Nc3cccc(OC)c3)c(=O)c2=O)c1 | inconclusive: 89.1 µM [inhibitor, single point] | 
53 | C=CCN(CC=C)S(=O)(=O)c1ccc(C(=O)Nc2nnc(CSC)o2)cc1 | inconclusive: 89.1 µM [inhibitor, single point] | 
54 | Cc1ccc(OCc2nc(C#N)c(NCCc3ccccc3)o2)cc1 | inconclusive: 17.8 µM [inhibitor, full curve] | 
55 | Cc1ccc(CNC(=O)c2cc3c(-c4ccc(Cl)cc4)nn(C)c3s2)o1 |  | inactive: -0.405%
56 | Cc1cc(C)c(NC(=O)C(=O)NCC(c2cccnc2)N2CCN(c3ccccc3F)CC2)c(C)c1 (configuration not stated) |  | inactive: -16.9%
57 | CCN(CC)CCOC(=O)c1ccc(N/C=C(/C#N)c2nc(-c3cccc(OC)c3)cs2)cc1 | inconclusive: 50.1 µM [inhibitor, partial curve] | 
58 | CCOc1ccc2nc(NC(=S)N(C)C)sc2c1 | active: 35.5 µM | 
59 | CC(C)(C)n1nnnc1C(c1cccnc1)N(Cc1ccccc1)Cc1cccs1 (configuration not stated) | inconclusive: 79.4 µM [inhibitor, single point] | 
60 | O=S(=O)(c1ccc(F)cc1)N1CCN(CC(O)COc2ccccc2F)CC1 (configuration not stated) | active: 20 µM | 
61 | Cc1nn(C(C)C(=O)N/N=C/c2ccc(N(C)C)cc2)c(C)c1[N+](=O)[O-] (configuration not stated) | inconclusive: 50.1 µM [inhibitor, partial curve] | 
62 | O=C(NCCc1ccccn1)c1cc2ccccc2o1 | inconclusive: 8.91 µM [inhibitor, full curve, poor fit] | 
63 | CSc1nc(=S)n(-c2cc(C)ccc2C)c(C)c1C(C)=O | inconclusive: 89.1 µM [inhibitor, single point] | 
64 | O=[N+]([O-])c1cc2c(cc1CN1CCN(c3ccccc3F)CC1)OCO2 | active: 56.2 µM | 
65 | CNC(=S)N1CCn2cccc2C1c1cc(OC)c(OC)c(OC)c1 (configuration not stated) | inconclusive: 56.2 µM [inhibitor, partial curve] | 
66 | COCC1CCCCN1C(=O)c1ccc(OC2CCN(CCc3ccccc3)CC2)cc1 (configuration not stated) |  | inactive: -6.27% [at 57.1 µM]
67 | CCn1c(O)c(/C=C2\C=NN=C2c2ccc(C)cc2)sc1=S | inconclusive: 79.4 µM [inhibitor, single point] | 
68 | Cc1ccc2c(C)c(C(=O)NCC(c3ccc(Cl)cc3)N3CCOCC3)oc2c1 (configuration not stated) | inconclusive: 56.2 µM [inhibitor, single point] | 
69 | CCN(C(=O)CSc1nc2ccccc2n1Cc1ccccc1C#N)c1ccccc1 | inconclusive: 7.08 µM [inhibitor, full curve, poor fit] | 
70 | Cc1ccc(-c2nc(S(=O)(=O)c3ccc(C)cc3)c(SCC(=O)c3ccccc3)o2)cc1 |  | inactive: -12.3%
71 | COC(=O)c1ccc(CON2C(=O)c3ccccc3C2=O)cc1 | inconclusive: 10 µM [inhibitor, single point] | 
72 | Cc1nc(C(C)NC(=O)c2ccc(OC3CCN(Cc4ccccn4)CC3)cc2)c(C)s1 (configuration not stated) | active: 79.4 µM | 
